{"source": "PubChem BioAssay AID1346428", "about": "(National Center for Advancing Translational Sciences (NCATS), 2018)", "note": "In all, about 48,000 compounds went through this assay and about 1,200 (2.5%) were called active. Another 2% or so got no clear call; they are omitted.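 Rule for the calls: active = activation of at least 60% and not above a set upper limit (about 1 call in 100 departs from these limits); inconclusive = activation of 40% to 60%, or above that upper limit; inactive = activation under 40%.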 The list shows a part of the results.", "data": [{"target": "Probable G-protein coupled receptor 32 (Homo sapiens) (UniProt O75388)", "sequence (O75388 whole entry, looked up)": "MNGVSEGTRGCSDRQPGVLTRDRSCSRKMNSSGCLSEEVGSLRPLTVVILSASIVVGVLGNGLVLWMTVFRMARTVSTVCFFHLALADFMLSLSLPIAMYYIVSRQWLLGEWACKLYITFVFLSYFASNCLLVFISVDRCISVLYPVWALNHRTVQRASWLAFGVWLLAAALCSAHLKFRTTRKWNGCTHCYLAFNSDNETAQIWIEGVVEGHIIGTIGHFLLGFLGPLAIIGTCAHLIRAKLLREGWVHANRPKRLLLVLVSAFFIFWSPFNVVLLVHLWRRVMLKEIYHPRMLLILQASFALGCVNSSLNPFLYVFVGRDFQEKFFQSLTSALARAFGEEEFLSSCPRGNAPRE", "test": "qHTS for Agonists of Human Resolvin D1 Receptor DRV1", "details": "CHO-K1 GPR32 beta-arrestin PathHunter luminescence, 90 min; at 76.9 µM; stronger effect = higher value; zero percent set by DMSO-only wells", "outline": "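Beta-arrestin recruitment read-out: luminescence from complemented beta-Gal in CHO-K1 GPR32 PathHunter cells, measured 1 h after detection reagent at ambient temperature following 90 min compound exposure at 37 °C; DMSO served as basal (EC0) control.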", "values": [{"smiles": "CCCN(CCC)C(=O)C(Cc1ccccc1)NS(=O)(=O)c1ccc2c(c1)c(=O)n(C)c(=O)n2C", "note": "(stereo unspecified)", "activation": "inactive: -4.07%"}, {"smiles": "CCc1nn(C(C)C(=O)N2CCN(c3ccccc3)CC2)c(=O)c2cc3occc3n12", "note": "(stereo unspecified)", "activation": "inactive: -22.4%"}, {"smiles": "Cc1oc2c(C)c3oc(=O)c(CC(=O)N4CCCCC4)c(C)c3cc2c1C", "activation": "inactive: -3.46%"}, {"smiles": "CCCSc1ncc(Cl)c(C(=O)Nc2nc3ccc(C)cc3s2)n1", "activation": "inactive: -16.2%"}, {"smiles": "CSc1ccc(CCNC(=O)c2ccc3c(Cl)c4c(nc3c2)CCCC4)cc1", "activation": "inactive: 14.4%"}, {"smiles": "Cc1nn2c(=O)cc(COC(=O)c3cccs3)nc2s1", "activation": "inactive: -1.5%"}, {"smiles": "COc1ccc(S(=O)(=O)c2c(O)c3ccc(C(=O)Nc4ccccc4)cc3[nH]c2=O)cc1", "activation": "inactive: -6.01%"}, {"smiles": "Cc1cc(C)c2c(CC(=O)Nc3ccccc3C(F)(F)F)coc2c1", "activation": "inactive: 0.116%"}, {"smiles": "CCc1ccccc1NC(=O)Cn1nc(C(F)(F)F)c2c1CCC2", "activation": "inactive: -6.93%"}, {"smiles": "CN(C)c1ccc(C(CNS(=O)(=O)c2ccc(Cl)cc2)N2CCOCC2)cc1", "note": "(stereo unspecified)", "activation": "inactive: -18%"}, {"smiles": "CCc1nn(CC(=O)Nc2cccc(C(C)=O)c2)c(=O)c2cc3sccc3n12", "activation": "inactive: -25.3%"}, {"smiles": "CCS(=O)(=O)c1ncc(Cl)c(C(=O)NCc2ccc(OC)cc2)n1", "activation": "inactive: -14%"}, {"smiles": "CCOC(=O)N1CCC(Nc2ccc(Cl)cc2N)CC1", "activation": "inactive: -8.41%"}, {"smiles": "Cc1cccc(NC(=O)C2CCN(c3nnc(C)c4c(C)n(-c5ccccc5)nc34)CC2)c1C", "activation": "inactive: -14.2%"}, {"smiles": "O=C(NCc1ccccc1)C(=O)NCC(c1ccco1)S(=O)(=O)c1cccs1", "note": "(stereo unspecified)", "activation": "inactive: -16.8%"}, {"smiles": "Cc1ccc(Cl)cc1NC(=O)C1CCCN(c2cnccn2)C1", "note": "(stereo unspecified)", "activation": "inactive: -1.57%"}, {"smiles": "O=C(CCn1c(=O)c2ccccc2n(Cc2cccc(Cl)c2)c1=O)NCCc1ccccc1", "activation": "inactive: 3.39%"}, {"smiles": "CN(c1ccccc1C(=O)O)S(=O)(=O)c1ccc2[nH]c(=O)oc2c1", "activation": "inactive: -5.77%"}, {"smiles": "CCOC(=O)c1ccccc1NC(=O)Cn1c(=O)n(Cc2nc(C)no2)c(=O)c2ccccc21", "activation": "inactive: -23.3%"}, {"smiles": "CCOC(=O)CSc1nc2cc3c(cc2c(=O)n1Cc1ccc(C(=O)NCCc2ccc(OC)c(OC)c2)cc1)OCO3", "activation": "inactive: -10.8%"}, {"smiles": "COc1cc(OC)c(N(C)C(=O)c2c(C)oc3ncn(CC(C)C)c(=O)c23)cc1Cl", "activation": "inactive: -23.8%"}, {"smiles": "Cc1c(-c2ccccc2)nc2c(Cl)cccc2c1C(=O)OCC(=O)c1ccc(F)cc1", "activation": "inactive: -7.04%"}, {"smiles": "Cc1cc(C)c2c(CC(=O)N(Cc3ccc(Cl)cc3)Cc3ccco3)coc2c1", "activation": "inactive: -28.1%"}, {"smiles": "O=C(Nc1ccccc1)c1nc[nH]c1C(=O)O", "activation": "inactive: -0.184%"}, {"smiles": "COc1ccc(-c2cc(C(F)(F)F)nc(SCC(=O)NCCc3ccccc3)n2)cc1", "activation": "inactive: 14.1%"}, {"smiles": "CCOc1ccccc1C(=O)N(Cc1sccc1C)C1CCS(=O)(=O)C1", "note": "(stereo unspecified)", "activation": "inactive: -12%"}, {"smiles": "Cc1ccc(NC(=O)Cn2cc(S(=O)(=O)Cc3ccc(F)cc3)c3ccccc32)cc1Cl", "activation": "inactive: 16.4%"}, {"smiles": "N#Cc1c(-n2ncnc2-c2ccc(F)cc2)sc2c1CCCCC2", "activation": "active: 69%"}, {"smiles": "O=C(C1CCN(S(=O)(=O)c2ccc(Br)s2)CC1)N1CCN(c2cccc(C(F)(F)F)c2)CC1", "activation": "inactive: -11.9%"}, {"smiles": "CCCSc1ncc(Cl)c(C(=O)Nc2sc3c(c2C(=O)OC)CCCC3)n1", "activation": "inactive: -2.04%"}, {"smiles": "O=C(CSCc1cnn(-c2ccccc2)c1-n1cccc1)NCc1cccc(Cl)c1", "activation": "inactive: -19%"}, {"smiles": "COc1cc(NC(=O)Cn2c(=O)ccc3cc(S(=O)(=O)N4CCCC4)ccc32)cc(OC)c1", "activation": "inactive: 9.73%"}, {"smiles": "CCC(C)NC(=O)CCC(=O)N1Cc2ccccc2Oc2ncccc21", "note": "(stereo unspecified)", "activation": "inactive: -4.98%"}, {"smiles": "CC1=C(C(=O)N2CCN(c3ccccc3)CC2)C2(CCCCC2)OC1=O", "activation": "inactive: -22%"}, {"smiles": "Cc1ccc(S(=O)(=O)Nc2ccc3nc(-c4ccc(F)cc4)oc3c2)cc1", "activation": "active: 66.5%"}, {"smiles": "CC(C)(C)NC(=O)c1oc2ccccc2c1NC(=O)c1ccccc1F", "activation": "inactive: -23.3%"}, {"smiles": "CCOC(=O)c1c(C)[nH]c(C)c1S(=O)(=O)N(C)CC(=O)Nc1ccc(CC)cc1", "activation": "inactive: -8.22%"}, {"smiles": "COc1ccc(/C=C\\c2onc(C)c2S(=O)(=O)N2CCC(C(=O)Nc3cccc(OC)c3)CC2)cc1", "activation": "inactive: -25.4%"}, {"smiles": "COc1ccc(CNC(=O)c2cc3ccccn3n2)cc1OC", "activation": "inactive: -7.75%"}, {"smiles": "Cc1ccc(-n2nc(C)c(C(=O)O)c2-n2cccc2)cc1", "activation": "inactive: -11.7%"}, {"smiles": "Cc1ccc(CNC(=O)c2c(C)oc3ncnc(N4CCOCC4)c23)cc1", "activation": "inactive: -9.33%"}, {"smiles": "CCc1ccc(-n2c(=O)c3c4c(sc3n(CC(=O)c3ccc(Br)cc3)c2=O)CCC4)cc1", "activation": "inactive: -0.456%"}, {"smiles": "O=C(NCc1ccccc1)c1cc2ccc3cccnc3c2[nH]1", "activation": "inactive: 11.1%"}, {"smiles": "CCCNC(=O)CN1C(=O)CSc2ccc(S(=O)(=O)N3CCC(C)CC3)cc21", "activation": "inactive: 5.75%"}, {"smiles": "Cc1ccc(Nc2c(C(C)C)c(C)c(C#N)c3nc4ccccc4n23)cc1", "activation": "inactive: 12.6%"}, {"smiles": "CCC(C)NC(=O)CCCc1nnc2n(CC(C)C)c(=O)c3sccc3n12", "note": "(stereo unspecified)", "activation": "inactive: 4.48%"}, {"smiles": "CCN(CC)C(=O)C1CCN(S(=O)(=O)c2c(C)noc2/C=C/c2cccc(OC)c2)CC1", "activation": "inactive: -18.3%"}, {"smiles": "COc1ccc2c(c1)CCc1c(C(=O)Nc3c(C)nn(Cc4ccccc4)c3C)noc1-2", "activation": "inactive: 9.8%"}, {"smiles": "Cc1ccccc1-c1noc(-c2ccc(NCc3ccco3)c([N+](=O)[O-])c2)n1", "activation": "inactive: -0.619%"}, {"smiles": "CCOc1ccc(NC(=O)c2cc(S(=O)(=O)NC3CCCCCC3)ccc2F)cc1", "activation": "inactive: -22.8%"}, {"smiles": "CCOc1ccc(-n2c(=O)c3c(C)c(C)sc3n(CC(=O)NCCc3ccccc3)c2=O)cc1", "activation": "inactive: -9.53%"}, {"smiles": "COc1ccc2c(Sc3ccc(C)cc3)c(C(=O)NC(C)C)[nH]c2c1", "activation": "inactive: -7.07%"}, {"smiles": "CCOc1ccccc1NC(=O)CSc1nccn1-c1cccc(C)c1", "activation": "inactive: 19.2%"}, {"smiles": "Cc1ccc(NC(=O)/C=C\\C(=O)N(c2ccc(C(C)C)cc2)C(C(=O)NCc2ccco2)c2ccc(F)cc2)cc1", "note": "(stereo unspecified)", "activation": "inactive: -20.5%"}, {"smiles": "COCCCNC(=O)c1nn(-c2ccc(C)cc2)nc1CO", "activation": "inactive: -4.3%"}, {"smiles": "CCOc1ccc(C2CC(=O)c3c([nH]c(C(=O)OCC4CCCCC4)c3C)C2)cc1", "note": "(stereo unspecified)", "activation": "inactive: -6.37%"}, {"smiles": "O=c1oc2ccccc2c(N2CCN(c3ccccc3F)CC2)c1CN1CCCC1", "activation": "inactive: -3.62%"}, {"smiles": "Cc1ccc(S(=O)(=O)C(CNC(=O)C(=O)NCCc2ccccc2)c2cccs2)cc1", "note": "(stereo unspecified)", "activation": "inactive: 7.36%"}, {"smiles": "CCCc1cc(=O)oc2cc(C)c3c(-c4ccccc4)coc3c12", "activation": "inactive: -9.42%"}, {"smiles": "Cc1cccc(CNC(=O)Cn2ccc3cc(S(=O)(=O)N4CCCCCC4)ccc32)c1", "activation": "inactive: 32.8%"}, {"smiles": "COc1cccc(NC(=O)C(Cc2ccccc2)NS(=O)(=O)c2ccc3c(c2)c(=O)n(C)c(=O)n3C)c1", "note": "(stereo unspecified)", "activation": "inactive: -3.25%"}, {"smiles": "Cc1ccc(NC(=O)CC2Nc3ccccc3NC2=O)cc1C", "note": "(stereo unspecified)", "activation": "inactive: 19.2%"}, {"smiles": "O=C(CN1C(=O)CSc2ccc(S(=O)(=O)N3CCCC3)cc21)Nc1cccc(Cl)c1", "activation": "inactive: -19.3%"}, {"smiles": "Cc1ccc(OCC(=O)Nc2nnc(S(=O)(=O)N3CCCCCC3)s2)cc1", "activation": "inactive: 9.67%"}, {"smiles": "O=C(NCc1ccc(F)cc1)C1(c2cccs2)CCOCC1", "activation": "inactive: -5.47%"}, {"smiles": "COc1cc(Nc2nc3c(S(=O)(=O)c4ccc(C)c(C)c4)nnn3c3ccsc23)cc(OC)c1", "activation": "inactive: -5.35%"}, {"smiles": "CCOC(=O)c1c(NC(=O)C2c3ccccc3Oc3ccccc32)sc(C)c1CC", "activation": "inactive: -12.2%"}, {"smiles": "Oc1ccc(NCc2ccccc2OCc2ccc(Cl)cc2)cc1", "activation": "inactive: 0.322%"}, {"smiles": "CCn1c(=O)cc(OCC(=O)N(C)c2cc(Cl)ccc2C)c2ccccc21", "activation": "inactive: 39.5%"}, {"smiles": "COC(=O)c1ccccc1NC(=O)N1CCC(N2CCN(Cc3ccc(F)cc3)C(=O)C2=O)CC1", "activation": "inactive: -19.6%"}, {"smiles": "CC(C)(C)C1CCc2nc(NC(=O)Cc3ccccc3)sc2C1", "note": "(stereo unspecified)", "activation": "inactive: -25.2%"}, {"smiles": "COc1ccccc1N1C(=O)N(CC(=O)C(C)(C)C)c2ccccc2S1(=O)=O", "activation": "inactive: -0.3%"}, {"smiles": "CSc1ccc(-c2nc3cccc(C)n3c2Nc2ccc(Cl)cc2)cc1", "activation": "inactive: -2.26%"}, {"smiles": "CN(C)CCNC(=O)c1ccc(-c2nn(C)c(=O)c3ccccc23)cc1", "activation": "inactive: -6.67%"}, {"smiles": "O=C1CN(C(=O)COc2ccc(Cl)cc2Cl)C(c2ccccc2)c2cc(F)ccc2N1", "note": "(stereo unspecified)", "activation": "inactive: -14.6%"}, {"smiles": "CCCCC(CC)COC(=O)c1ccc(N(C)C)cc1", "note": "(stereo unspecified)", "activation": "inactive: -42.8%"}, {"smiles": "COc1cc(O)c(C(=O)c2ccccc2)cc1S(=O)(=O)O", "activation": "inactive: -61.8%"}, {"smiles": "O=C(O)Cc1ccccc1Oc1ccc(Cl)cc1Cl", "activation": "inactive: -0.299%"}, {"smiles": "COc1cc(OC)cc(OC)c1", "activation": "inactive: 4.42%"}, {"smiles": "CCOc1ccc(CCNC(=O)c2nn(C)c3c2CSc2ccccc2-3)cc1", "activation": "inactive: -11.7%"}, {"smiles": "CC(C)c1ccc(S(=O)(=O)c2cnc(SCC(=O)Nc3ccc4c(c3)OCCO4)[nH]c2=O)cc1", "activation": "inactive: 13.9%"}, {"smiles": "Cc1ccc(Cn2cnc3nc4c(cc3c2=O)CC(C)CC4)cc1", "note": "(stereo unspecified)", "activation": "inactive: -10.9%"}, {"smiles": "CCOc1ccccc1CNC(=O)CCCn1ccc2cc(S(=O)(=O)N3CCCC3)ccc21", "activation": "inactive: -2.67%"}, {"smiles": "Cc1cccc(C(=O)NNc2ncnc3c2cnn3-c2ccc(C)cc2C)c1", "activation": "active: 113%"}, {"smiles": "O=C(O)c1ccc(NC(=O)c2cc(S(=O)(=O)N3CCCCC3)c(Cl)cc2Cl)cc1", "activation": "inactive: -5.17%"}, {"smiles": "O=C(CN1N=C(c2ccc(Cl)cc2)CCC1=O)NCCc1ccccc1", "activation": "inactive: -19.6%"}]}]}
